In paper PMC12820563:
The list shows a part of the results. The list includes weakly bound sequences.

Molecular target: T1, MBP-FoxP3dN (UniProt Q99JB6)
T1 sequence: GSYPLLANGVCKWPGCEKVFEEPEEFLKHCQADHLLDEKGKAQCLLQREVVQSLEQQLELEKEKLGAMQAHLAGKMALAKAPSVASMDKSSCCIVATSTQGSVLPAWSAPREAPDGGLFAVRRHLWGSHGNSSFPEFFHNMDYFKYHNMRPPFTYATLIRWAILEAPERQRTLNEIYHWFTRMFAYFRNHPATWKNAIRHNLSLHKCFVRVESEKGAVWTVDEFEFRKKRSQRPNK
Experiment: PD-seq (MBP pull-down with sequencing)
Conditions: 20 mM Tris-HCl pH 7.5, 100 mM NaCl, 1.5 mM MgCl2, 0.4 uM protein, 0.1 uM dsDNA library, 30 min, room temperature, amylose pull-down; high values mean tight binding; double strand, one strand shown

| Sequence | binding signal (RPM ratio (pull-down/input)) |
| --- | --- |
| GATGATTGTTCTCCCAGCTGATGAATTTAATTGGTCGAGTAAACAAATTTTCCTAATCTTTCTGTTCAAGCGCCATCTAC | 3.45 |
| GATGATTGTTCTCCCAGCTGATGAATTCGTCCAGTCGAGTAAACAAATTTTCCTAATCTTTCTGTTCAAGCGCCATCTAC | 0.261 |
| GATGATTGTTCTCCCAGCTGATGAATTGTGAAGTTCGAGTAAACAAATTTTCCTAATCTTTCTGTTCAAGCGCCATCTAC | 0.445 |
| GATGATTGTTCTCCCAGCTGATGAATTTACCGCATCGAGTAAACAAATTTTCCTAATCTTTCTGTTCAAGCGCCATCTAC | 1.17 |
| GATGATTGTTCTCCCAGCTGATGAATTTTTACTCTCGAGTAAACAAATTTTCCTAATCTTTCTGTTCAAGCGCCATCTAC | 0.238 |
| GATGATTGTTCTCCCAGCTGATGAATTCGTAATATCGAGTAAACAAATTTTCCTAATCTTTCTGTTCAAGCGCCATCTAC | 0.56 |
| GATGATTGTTCTCCCAGCTGATGAATTTTTTGATTCGAGTAAACAAATTTTCCTAATCTTTCTGTTCAAGCGCCATCTAC | 0.323 |
| GATGATTGTTCTCCCAGCTGATGAATTGGAGGTTTCGAGTAAACAAATTTTCCTAATCTTTCTGTTCAAGCGCCATCTAC | 0.469 |
| GATGATTGTTCTCCCAGCTGATGAATTTAATTTATCGAGTAAACAAATTTTCCTAATCTTTCTGTTCAAGCGCCATCTAC | 2.28 |
| GATGATTGTTCTCCCAGCTGATGAATTCGTATCATCGAGTAAACAAATTTTCCTAATCTTTCTGTTCAAGCGCCATCTAC | 1.52 |
| GATGATTGTTCTCCCAGCTGATGAATTTCTCACATCGAGTAAACAAATTTTCCTAATCTTTCTGTTCAAGCGCCATCTAC | 0.35 |
| GATGATTGTTCTCCCAGCTGATGAATTCGAGGTGTCGAGTAAACAAATTTTCCTAATCTTTCTGTTCAAGCGCCATCTAC | 0.763 |
| GATGATTGTTCTCCCAGCTGATGAATTTATACTCTCGAGTAAACAAATTTTCCTAATCTTTCTGTTCAAGCGCCATCTAC | 0.936 |
| GATGATTGTTCTCCCAGCTGATGAATTGTCATTCTCGAGTAAACAAATTTTCCTAATCTTTCTGTTCAAGCGCCATCTAC | 1.1 |
| GATGATTGTTCTCCCAGCTGATGAATTAGGCGTATCGAGTAAACAAATTTTCCTAATCTTTCTGTTCAAGCGCCATCTAC | 1.26 |
| GATGATTGTTCTCCCAGCTGATGAATTGCGTATTTCGAGTAAACAAATTTTCCTAATCTTTCTGTTCAAGCGCCATCTAC | 3.53 |

| Sequence | binding signal (RPM ratio (pull-down/input)) |
| --- | --- |
| GATGATTGTTCTCCCAGCTGATGAATTATGCCAGTCGAGTAAACAAATTTTCCTAATCTTTCTGTTCAAGCGCCATCTAC | 3.15 |
| GATGATTGTTCTCCCAGCTGATGAATTATTGCGGTCGAGTAAACAAATTTTCCTAATCTTTCTGTTCAAGCGCCATCTAC | 0.799 |
| GATGATTGTTCTCCCAGCTGATGAATTCCTCACTTCGAGTAAACAAATTTTCCTAATCTTTCTGTTCAAGCGCCATCTAC | 0.282 |
| GATGATTGTTCTCCCAGCTGATGAATTGTCAACATCGAGTAAACAAATTTTCCTAATCTTTCTGTTCAAGCGCCATCTAC | 3.6 |
| GATGATTGTTCTCCCAGCTGATGAATTTTCTATGTCGAGTAAACAAATTTTCCTAATCTTTCTGTTCAAGCGCCATCTAC | 0.331 |
| GATGATTGTTCTCCCAGCTGATGAATTCACCTCGTCGAGTAAACAAATTTTCCTAATCTTTCTGTTCAAGCGCCATCTAC | 0.296 |
| GATGATTGTTCTCCCAGCTGATGAATTGTTAGCTTCGAGTAAACAAATTTTCCTAATCTTTCTGTTCAAGCGCCATCTAC | 1.56 |
| GATGATTGTTCTCCCAGCTGATGAATTCTGTTTGTCGAGTAAACAAATTTTCCTAATCTTTCTGTTCAAGCGCCATCTAC | 6.99 |
| GATGATTGTTCTCCCAGCTGATGAATTTCCGCCCTCGAGTAAACAAATTTTCCTAATCTTTCTGTTCAAGCGCCATCTAC | 0.63 |
| GATGATTGTTCTCCCAGCTGATGAATTCATTCGATCGAGTAAACAAATTTTCCTAATCTTTCTGTTCAAGCGCCATCTAC | 0.244 |
| GATGATTGTTCTCCCAGCTGATGAATTTATGTTTTCGAGTAAACAAATTTTCCTAATCTTTCTGTTCAAGCGCCATCTAC | 3.55 |
| GATGATTGTTCTCCCAGCTGATGAATTGCGACAATCGAGTAAACAAATTTTCCTAATCTTTCTGTTCAAGCGCCATCTAC | 1.06 |
| GATGATTGTTCTCCCAGCTGATGAATTCGTTTTGTCGAGTAAACAAATTTTCCTAATCTTTCTGTTCAAGCGCCATCTAC | 3.54 |
| GATGATTGTTCTCCCAGCTGATGAATTGCACAGCTCGAGTAAACAAATTTTCCTAATCTTTCTGTTCAAGCGCCATCTAC | 0.692 |
| GATGATTGTTCTCCCAGCTGATGAATTGGGGAACTCGAGTAAACAAATTTTCCTAATCTTTCTGTTCAAGCGCCATCTAC | 0.256 |
| GATGATTGTTCTCCCAGCTGATGAATTATAGCAATCGAGTAAACAAATTTTCCTAATCTTTCTGTTCAAGCGCCATCTAC | 2.17 |
